Measured values published in paper PMC6919601, “Identification of Plasmodium dipeptidyl aminopeptidase allosteric inhibitors by high throughput screening” (PLoS ONE, 2019).
Where “and” joins values, the source holds several entries; their conditions need not be identical. Identical values can stand only once. The whole screen tested about 110,000 compounds, of which about 230 (0.21%) showed an effect of 50% or more. Some of the results follow.

Biological target: DPAP1 (Plasmodium falciparum, UniProt Q8IIJ9)
Sequence (Q8IIJ9 whole entry, looked up): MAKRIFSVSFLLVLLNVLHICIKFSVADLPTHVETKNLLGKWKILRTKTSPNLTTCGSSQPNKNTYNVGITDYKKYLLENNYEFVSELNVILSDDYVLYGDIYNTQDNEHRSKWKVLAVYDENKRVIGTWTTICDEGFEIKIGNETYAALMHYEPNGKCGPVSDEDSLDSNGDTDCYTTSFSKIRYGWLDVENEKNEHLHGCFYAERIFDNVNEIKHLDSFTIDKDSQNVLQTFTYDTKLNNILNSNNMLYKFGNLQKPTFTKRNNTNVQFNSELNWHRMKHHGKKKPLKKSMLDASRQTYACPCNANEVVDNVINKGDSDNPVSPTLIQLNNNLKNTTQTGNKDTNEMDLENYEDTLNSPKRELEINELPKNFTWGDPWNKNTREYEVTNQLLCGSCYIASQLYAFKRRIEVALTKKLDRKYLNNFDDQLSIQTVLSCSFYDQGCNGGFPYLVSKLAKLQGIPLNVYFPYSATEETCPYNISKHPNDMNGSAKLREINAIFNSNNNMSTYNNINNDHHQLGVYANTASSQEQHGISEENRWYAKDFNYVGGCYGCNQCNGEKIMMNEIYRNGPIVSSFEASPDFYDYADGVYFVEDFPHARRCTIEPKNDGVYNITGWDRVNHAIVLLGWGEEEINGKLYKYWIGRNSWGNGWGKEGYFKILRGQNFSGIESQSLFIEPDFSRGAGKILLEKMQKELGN
Test: primary screen, percent inhibition; read by cleavage of a fluorogenic dipeptide substrate; higher = more effect of the substance
Parameters: species or system P. falciparum D10 trophozoite lysates; single well
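Also: 30 min substrate incubation versus DMSO and 10 µM JCP410 controls.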

Row | SMILES | % Inhibition @ 10 uM
1 | C=CCN1C(=O)NC(=O)/C(=C\c2ccc(O)c(O)c2)C1=O | 20.2%
2 | Cc1ccc2ncc(S(=O)(=O)c3ccccc3)c(N3CCCCC3)c2c1 | -1.85%
3 | CCN1CCN(c2nc3c(S(=O)(=O)c4ccc(Cl)cc4)nnn3c3ccsc23)CC1 | -5.26%
4 | CN1CCN(C(=O)c2nn3c(C(F)(F)F)cc(-c4cccs4)nc3c2Cl)CC1 | -5.28%
5 | CC(C)NC(=O)c1cccc(Cn2cc(Cl)cn2)c1 | -6.62%
6 | Nc1c(-c2nc3ccccc3[nH]2)nnn1-c1cccc(C(F)(F)F)c1 | -2.28%
7 | O=C1NC(=O)C(Cc2ccccc2)(CN2CCCCC2)C(=O)N1 | -0.925%
8 | Cc1cc(C)c2nc(NC(=O)c3sc(C)nc3C)sc2c1 | 5.54%
9 | O=C(CN1C(=O)c2ccccc2C1=O)NCc1ccc(C(=O)O)cc1 | 20.5%
10 | CCCN1CCN(C(=O)Cc2c(C)nc3c(-c4ccccc4)c(C)nn3c2C)CC1 | 0.953%
11 | CN(Cc1ccco1)C(=O)CN1N=C(c2ccccc2)CCC1=O | -0.0542%
12 | O=C(NCc1ccco1)C1CC(=O)N(c2ccc(F)cc2)C1 (stereo not shown) | 1.62%
13 | CNC(=O)/C(=C\c1ccc(OC)cc1)NC(=O)c1ccccc1 | -1.37%
14 | c1nnc2c3c4c(sc3ncn12)CCC4 | -0.178%
15 | Cc1cccc(-c2noc(CNC(=O)c3ccc(Br)o3)n2)c1 | -2.99%
16 | CCOc1cc(S(=O)(=O)Nc2cccnc2)ccc1Cl | 1.72%
17 | O=C(Nc1ccc(F)cc1)c1scc2c1CCCC2 | -8.6%
18 | CCOc1ccc(C(=O)/C=C/c2ccc(C(C)C)cc2)cc1 | 2.94%
19 | Cc1ccc(S(=O)(=O)NC(C(=O)N2CCOCCOCCOCC2)c2ccccc2)cc1 (stereo not shown) | -4.93%
20 | CN1CC[C@@]2(O)CCCC[C@@H]2[C@H]1c1ccc(F)cc1 | -4.11%
21 | CCN1CCN(C(CNC(=O)c2ccc3c(c2)OCO3)c2cccnc2)CC1 (stereo not shown) | -5.37%
22 | NC(=O)c1c(NC(=O)C(F)(F)F)sc2c1CCCCCC2 | -3.87%

Row | SMILES | % Inhibition @ 10 uM
23 | CC(CCc1ccccc1)NC(=O)Cn1ncn2c(cc3sccc32)c1=O (stereo not shown) | 4.95%
24 | Cc1cc2c(c(=O)o1)C(c1ccc3ccccc3c1)C(C#N)=C(N)O2 (stereo not shown) | -2.22%
25 | Cc1cc(C)c(C#N)c(SCC(=O)c2ccc(C)c(C)c2)n1 | 16.2%
26 | COc1ccc(C2C=C(c3ccc(C)cc3)Nc3nnnn32)c(OC)c1 (stereo not shown) | 0.0842%
27 | COc1ccc2c(c1)CCC1C2=NN(C(C)=O)C1c1ccccc1 (stereo not shown) | 3.61%
28 | O=C(Cn1c(C(=O)O)ccc1-c1ccco1)c1ccccc1 | -0.0309%
29 | CC(C)(C)OC(=O)N1CCC(C(=O)N2CCCC2)CC1 | 1.63%
30 | CCOC(=O)c1ccccc1NS(=O)(=O)c1ccccc1 | -2.7%
31 | O=C(NCc1ccco1)c1csc2c1CCCCC2 | 0.277%
32 | CCCCO/C(O)=C1/C(C)=NC2=C(C(=O)CCC2)C1c1ccccc1 (stereo not shown) | -5.92%
33 | Cc1cc(Cl)ccc1OCC(=O)Nc1ccncc1 | -1.88%
34 | CCn1c(SCC(=O)Nc2cccc(OC)c2)nc2c1c(=O)n(C)c(=O)n2C | -4.03%
35 | CN1CCC(NCCc2ccccc2F)CC1 | 2.99%
36 | O=C(COc1ccccc1Br)N1CCOCC1 | -8.82%
37 | O=C1NC(NCCc2ccccc2)=N/C1=C\c1ccccc1Cl | -4.02%
38 | Clc1ncnc2c1C(c1ccc(Br)cc1)c1c(Cl)ncnc1O2 | -6.87%
39 | CC1CCN(CC(O)Cn2cnc3c2c(=O)n(C)c(=O)n3C)CC1 (stereo not shown) | -6.66%
40 | Cc1ccc(N(CC(=O)Nc2ccc(CC#N)cc2)S(=O)(=O)c2ccc(C)cc2)cc1 | -0.175%
41 | CCS(=O)(=O)C1=NSC2=NC(=O)/C(=C\c3ccc(C)cc3)C(=N)N21 | 1.85%
42 | COCCCN1C(=O)c2ccccc2C1C(=O)NC1CCCCCC1 (stereo not shown) | 1.76%
43 | Nc1nc2ccc(S(=O)(=O)N3CCOCC3)cc2s1 | 4.47%
44 | COc1ccc(N2CC(C(=O)Nc3ccc(F)cc3F)CC2=O)cc1 (stereo not shown) | 0.674% and 1.19%

Row | SMILES | % Inhibition @ 10 uM
45 | COc1cccc(C(=O)Nc2ccc(Cl)cc2F)c1 | -5.14%
46 | CC[C@H](NC(=O)[C@H](CCSc1ccccc1)NC1=NS(=O)(=O)c2ccccc21)C(=O)c1nc2ccccc2o1 | -1.5%
47 | CCOC(=O)N1CCN(c2cc(N3CCC(C)CC3)c(F)cc2[N+](=O)[O-])CC1 | 2.05%
48 | COc1cccc(-c2cc(C(=O)Nc3sc(C)c(C)c3C(N)=O)c3ccccc3n2)c1 | -4.16%
49 | CC(C)c1ccc(-c2c(NCCc3ccc(Cl)cc3)c(=O)c2=O)cc1 | 3.04%
50 | O=[N+]([O-])c1ccc(-c2cc(O)n(-c3nc4ccccc4s3)n2)cc1 | -2.12%
51 | CC1CCN(CN2C(=O)c3ccccc3C2=O)CC1 | -6.36%
52 | O=C(Nc1cccc(Br)c1)c1ccccc1F | -3.35%
53 | COc1cc(OC)cc(C(=O)Nc2ccc(C(F)(F)F)cc2)c1 | 3.9%
54 | c1cc2c(cc1C1CCCCC1)c1c3n2CCN=C3CCC1 | 9.68%
55 | Cc1cc(O)nc2c1c(C)nn2-c1ccccc1 | -1.86%
56 | c1cncc(CNc2nc3ccccc3c3nc(-c4cccnc4)nn23)c1 | -6.07%
57 | CNc1nc(/C=C/c2ccccc2)nc(-c2ccccc2O)n1 | -3.32%
58 | CC/N=c1\c(NS(=O)(=O)c2ccc(C)cc2C)c(O)oc2ccccc12 | 4.47%
59 | Cc1[nH]c2ccccc2c1CCNC(=O)/C(=C/c1ccccc1)NC(=O)c1ccc(Br)o1 | -2.5%
60 | COc1ccc(-n2nc3c(N4CCCC(C(=O)NCCc5cccs5)C4)nnc(C)c3c2C)cc1 (stereo not shown) | 10.7%
61 | CC(C)c1ccc(-c2c(N3CCc4ccccc4C3)c(=O)c2=O)cc1 | 0.589%
62 | CC(=O)Nc1ccc(C)c(NC(=O)COc2ccc(C)cc2)c1 | -4.01%
63 | Cc1cccc(C(=O)N2CCN(C(=O)c3cccc(C)c3)CC2)c1 | 2.94%
64 | COc1ccc(/C=C\c2onc(C)c2S(=O)(=O)N2CCC(C(=O)N3CCCC(C)C3)CC2)cc1 (stereo not shown) | -3.09%
